Source: PubChem BioAssay (NCI)
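Five compound concentrations were applied to cells in 96-well plates for 48 hours; endpoints were derived by simple linear interpolation of the resulting dose-response curve. GI50 marks 50% less growth. TGI: total growth inhibition.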

System: NCI-H322M lung
Assay: inhibition of tumour cell growth, NCI panel, 48 h

SMILES	TGI [µM]	GI50 [µM]
O=C(NNS(=O)(=O)c1ccccc1)c1cccnc1	> 100	–
Cc1cc(Cl)ccc1Nc1nc(C(F)(F)F)ccc1C(=O)N/N=C/c1ccccc1Cl	> 21.8	0.532
COc1nc2c(c(=O)n1C)N=C(c1ccc(Cl)cc1)CC(c1ccccc1)N2 (centres undefined)	> 100	–
S=C=NCCc1ccccc1	5.36	–
CC(C)(C)C1=CC(=C2C=Cc3ccccc3O2)C=C(C(C)(C)C)C1=O	29.3	–
C[N+]1(CCC[N+]2(C)CC3C4C=CC(CC4)C3C2)CCOCC1 (centres undefined)	> 100	–
Cc1ccc(-c2nc(-c3cn(C)c4ncccc34)cs2)cc1	27.1	7.24
COc1cccc(/C(C)=N/NC(=O)CSc2nc3ccccc3c(=O)n2CCc2ccc(S(N)(=O)=O)cc2)c1	24	5.36
O=C1CCCCC/C1=C\c1ccccc1	> 100	–
CC1=C(C)C2(O)C(=C(C)C1=O)/C(=C(/O)c1ccccc1)c1nc3ccccc3n12 (centres undefined)	51.7	20.4
CC(=O)N(O)Cc1ccccc1	> 100	–
C=C1C(=O)O[C@H]2[C@H]1CC/C(COC(=O)NCCc1c[nH]c3ccc(Cl)cc13)=C\CC[C@@]1(C)O[C@@H]21	17.2	5.17
CCOC(=O)C1([Se]c2ccccc2)CCCC1=O (centres undefined)	> 100	–
CCn1c(=O)c2nc(SC)sc2n(-c2ccccc2)c1=O	> 100	–
CCOC(=O)/C=C/C(=O)[C@H](CC(C)C)NC(=O)[C@H](Cc1ccccc1)NC(=O)OCc1ccccc1	28.5	13.7
COc1cc(NCCN=C(N)NC(N)=NC(C)C)c2ncccc2c1	> 73.8	6.97
N#CN1CC[C@H](C(=O)Nc2cc3cc(C(N)=O)ccc3cn2)C1	3.67	0.112
CCOC(=O)Cc1cnc(NC(NC(=O)CC)(C(F)(F)F)C(F)(F)F)s1	> 100	–
O=C(NCCNc1nccc(-c2c(-c3cccc(O)c3)nc3sccn23)n1)c1ccccc1	> 100	26.3
c1ccc([As]=[As]c2ccccc2)cc1 (centres undefined)	3.98	1.99

SMILES	TGI [µM]	GI50 [µM]
CC(=O)OC1CC[C@@]2(C)C(CC[C@]3(C)C2CC=C2[C@@H]4C(C)[C@H](C)CCC4(C)CCC23C)[C@@]1(C)C(=O)O (some centres undefined)	35.7	–
C#COc1cccc(Nc2ncnc3cc(NC(=O)[C@H](C)Cl)ccc23)c1	> 62.5	9.04
O=c1cc(-c2ccccc2)oc2cc(OC/C(=N/O)c3ccc(F)cc3)ccc12	38.6	12.2
O=C1c2ccccc2C(=O)c2sc(Nc3ccccc3Cl)nc21	29.3	–
NC(Cc1ncccn1)C(=O)O (centres undefined)	> 100	–
CO[C@@H]1C[C@H](OC(N)=O)[C@@H]2C=C[C@@H]3/C=C(C)/C=C/[C@@H](C)[C@H](/C(C)=C/[C@@H](C)NC(C)=O)OC(=O)/C=C/C=C(C)\C=C\[C@]3(C)[C@@H]2C1	5.89	–
NC(=Nc1ccc(N)cc1)C(N)=Nc1ccc(N)cc1	> 100	> 100
CCn1c2c(c3ccccc31)C(c1ccccc1)CC1C(=O)N(c3ccccc3)C(=O)C21 (centres undefined)	> 100	–
O=c1[nH]c(=O)n(C2CC(O)C(CO)O2)cc1C#Cc1ccc(F)cc1 (centres undefined)	> 100	–
COc1cc2ccc1OCc1cccc(n1)COc1ccc(cc1OC)C=NCCNCCNCCN=C2	> 100	–
CCOC(=O)c1c(N2CCCC2)ncn(C)c1=S	> 100	–
CC[P+]1(c2ccccc2)[C@@H](C)CC[C@@H]1C	> 100	–
CCOC(=O)CN1CC(C2=C(O)CN(CC(=O)OCC)C2=O)=CC1=O	> 100	–
O=C(Nc1ccccc1O)c1ccc(NS(=O)(=O)c2cccc3cccnc23)cc1	> 23.6	2.35
S=C(N1CCN(c2cccc(Cl)c2)CC1)N1CCN(c2cccc(Cl)c2)CC1	> 100	–
Cc1ccc(C)c(NC(=O)CC2SC(=Nc3ccccc3Cl)NC2=O)c1 (centres undefined)	> 100	–
C=CCOC(=O)C1CCC(=O)N1C(=O)C(Cl)Cl (centres undefined)	> 100	–
O=C(CC(=O)c1cccc(Cl)c1)c1cccc(Cl)c1	> 100	3.33
CN(C(=O)Cc1cc(Cl)c(Cl)cc1NC(=O)CN)[C@H]1CCCC[C@@H]1N1CCCC1	> 100	–
